According to a collection of fitness landscapes (doi:10.1126/science.1257360):
Some of the results follow.

B1: PhoQ; a variant is named by its letters at X, in order, P23837 (parent)
chain: MKKLLRLFFPLSLRVRFLLATAAVVLVLSLAYGMVALIGYSVSFDKTTFRLLRGESNLFYTLAKWENNKLHVELPENIDKQSPTMTLIYDENGQLLWAQRDVPWLMKMIQPDWLKSNGFHEIEADVNDTSLLLSGDHSIQQQLQEVREDDDDAEMTHSVAVNVYPATSRMPKLTIVVVDTIPVELKSSYMVWSWFIYVLSANLLLVIPLLWVAAWWSLRPIEALAKEVRELEEHNRELLNPATTRELTSLVRNLNRLLKSERERYDKYRTTLTDLTHSLKTPLXXLQXXLRSLRSEKMSVSDAEPVMLEQISRISQQIGYYLHRASMRGGTLLSRELHPVAPLLDNLTSALNKVYQRKGVNISLDISPEISFVGEQNDFVEVMGNVLDNACKYCLEFVEISARQTDEHLYIVVEDDGPGIPLSKREVIFDRGQRVDTLRPGQGVGLAVAREITEQYEGKIVAGESMLGGARMEVIFGRQHSAPKDE

Variants of: B1
Assay: enrichment ratio after two sorts for PhoP signalling (ratio (wild type AVST 3.29)); higher = more functional
Conditions: with PhoP (E. coli)

| Variant | enrichment ratio |
| --- | --- |
| APYC | ≤ 0.25 |
| IQRE | ≤ 0.25 |
| SFMW | ≤ 0.25 |
| STNL | 4.19 |
| NQYS | ≤ 0.25 |
| MFFM | ≤ 0.25 |
| ETHE | ≤ 0.25 |
| DPPQ | ≤ 0.25 |
| DDFC | ≤ 0.25 |
| AMHW | ≤ 0.25 |
| WRYT | ≤ 0.25 |
| PHQK | ≤ 0.25 |
| LWHG | ≤ 0.25 |
| YRQC | ≤ 0.25 |
| FITD | ≤ 0.25 |
| YYGR | ≤ 0.25 |
| GISV | 11.2 |
| ILTV | ≤ 0.25 |
| VTYP | ≤ 0.25 |
| NIQH | ≤ 0.25 |
| FTKS | ≤ 0.25 |
| PVCC | ≤ 0.25 |
| DPRM | ≤ 0.25 |
| MLNR | ≤ 0.25 |
| DECH | ≤ 0.25 |

| Variant | enrichment ratio |
| --- | --- |
| GWRA | ≤ 0.25 |
| GFPC | ≤ 0.25 |
| PFVM | ≤ 0.25 |
| PMPD | ≤ 0.25 |
| IMDC | ≤ 0.25 |
| MDVW | ≤ 0.25 |
| EDFC | ≤ 0.25 |
| HNTG | ≤ 0.25 |
| IACR | ≤ 0.25 |
| LMGG | ≤ 0.25 |
| YHIC | ≤ 0.25 |
| NSSL | ≤ 0.25 |
| FGHA | ≤ 0.25 |
| KHYI | ≤ 0.25 |
| MGTW | ≤ 0.25 |
| FRRA | ≤ 0.25 |
| EIIL | ≤ 0.25 |
| QPSW | ≤ 0.25 |
| TFQY | ≤ 0.25 |
| NDRP | ≤ 0.25 |
| GITQ | 1.85 |
| DNED | ≤ 0.25 |
| AYYY | ≤ 0.25 |
| RYNQ | ≤ 0.25 |
| TTYK | ≤ 0.25 |

| Variant | enrichment ratio |
| --- | --- |
| AQHG | ≤ 0.25 |
| QRCF | ≤ 0.25 |
| WDVC | ≤ 0.25 |
| MEMR | ≤ 0.25 |
| EFMI | ≤ 0.25 |
| HEYV | ≤ 0.25 |
| AKHH | ≤ 0.25 |
| RSVV | ≤ 0.25 |
| HSTS | ≤ 0.25 |
| QSNK | ≤ 0.25 |
| KIRN | ≤ 0.25 |
| RKET | ≤ 0.25 |
| LEGC | ≤ 0.25 |
| WQVL | ≤ 0.25 |
| QVSF | 4.24 |
| VFVL | ≤ 0.25 |
| RTVE | ≤ 0.25 |
| NMQT | ≤ 0.25 |
| SDYW | ≤ 0.25 |
| GAAF | ≤ 0.25 |
| GWTM | ≤ 0.25 |
| LTIH | ≤ 0.25 |
| YLFP | ≤ 0.25 |
| LWIW | ≤ 0.25 |
| SPGF | ≤ 0.25 |

| Variant | enrichment ratio |
| --- | --- |
| EKFC | ≤ 0.25 |
| NGAY | ≤ 0.25 |
| FTTI | ≤ 0.25 |
| WYPE | ≤ 0.25 |
| DVWM | ≤ 0.25 |
| WPIY | ≤ 0.25 |
| DSAL | ≤ 0.25 |
| LNRF | 0.814 |
| QECW | ≤ 0.25 |
| LLVN | ≤ 0.25 |
| KMLN | ≤ 0.25 |
| LVGP | ≤ 0.25 |
| THHS | ≤ 0.25 |
| PLVK | ≤ 0.25 |
| HDAQ | ≤ 0.25 |
| PSLP | ≤ 0.25 |
| IWES | ≤ 0.25 |
| NIHS | ≤ 0.25 |
| KDCD | ≤ 0.25 |
| VPMG | ≤ 0.25 |
| IQNQ | ≤ 0.25 |
| KDLI | ≤ 0.25 |
| LVDS | ≤ 0.25 |
| SMNK | ≤ 0.25 |
| FIVS | ≤ 0.25 |

| Variant | enrichment ratio |
| --- | --- |
| IMNE | ≤ 0.25 |
| PLGL | ≤ 0.25 |
| WGWW | ≤ 0.25 |
| KMDH | ≤ 0.25 |
| PQPT | ≤ 0.25 |
| KYNW | ≤ 0.25 |
| SYQP | ≤ 0.25 |
| NMNK | ≤ 0.25 |
| EPTW | ≤ 0.25 |
| SGQP | ≤ 0.25 |
| GECR | ≤ 0.25 |
| WYLI | ≤ 0.25 |
| WLCR | ≤ 0.25 |
| MELC | 10.6 |
| HWIN | ≤ 0.25 |
| TLFN | ≤ 0.25 |
| QGWC | 7.22 |
| THKL | ≤ 0.25 |
| TLCP | ≤ 0.25 |
| FYNS | ≤ 0.25 |
| TLPQ | ≤ 0.25 |
| DTNL | ≤ 0.25 |
| YWIC | ≤ 0.25 |
| NPLH | ≤ 0.25 |
| HFPS | ≤ 0.25 |

| Variant | enrichment ratio |
| --- | --- |
| GNCM | 11.7 |
| VHAQ | ≤ 0.25 |
| RNAD | ≤ 0.25 |
| NFNP | ≤ 0.25 |
| SEPM | ≤ 0.25 |
| FIDS | ≤ 0.25 |
| VENV | ≤ 0.25 |
| RSEN | ≤ 0.25 |
| TDFY | ≤ 0.25 |
| ELCM | ≤ 0.25 |
| ELFW | ≤ 0.25 |
| CINL | ≤ 0.25 |
| FIGW | ≤ 0.25 |
| VIVD | ≤ 0.25 |
| YMVP | ≤ 0.25 |
| REPN | ≤ 0.25 |
| SSWG | ≤ 0.25 |
| EQYD | ≤ 0.25 |
| GSYF | ≤ 0.25 |
| WSVS | ≤ 0.25 |
| KYYM | ≤ 0.25 |
| RFYI | ≤ 0.25 |
| DCPS | ≤ 0.25 |
| MQNF | ≤ 0.25 |
| FCCS | ≤ 0.25 |

| Variant | enrichment ratio |
| --- | --- |
| LGYC | ≤ 0.25 |
| MFYN | ≤ 0.25 |
| TACC | 13.6 |
| IWYC | ≤ 0.25 |
| NHAH | ≤ 0.25 |
| RAKL | ≤ 0.25 |
| CLLT | ≤ 0.25 |
| VIWS | ≤ 0.25 |
| DDTV | ≤ 0.25 |
| MCIK | ≤ 0.25 |
| SRCL | 6.4 |
| IQWP | ≤ 0.25 |
| IWSR | ≤ 0.25 |
| DIYV | ≤ 0.25 |
| AGTP | ≤ 0.25 |
| YNSY | ≤ 0.25 |
| NKAC | ≤ 0.25 |
| QIWT | 20.8 |
| RVKG | ≤ 0.25 |
| KFSC | 0.256 |
| LFGG | ≤ 0.25 |
| SDAE | ≤ 0.25 |
| EPLG | ≤ 0.25 |
| VLCM | ≤ 0.25 |
| AELV | 24.4 |

| Variant | enrichment ratio |
| --- | --- |
| FWWG | ≤ 0.25 |
| ILIQ | ≤ 0.25 |
| IVYL | ≤ 0.25 |
| RNVW | ≤ 0.25 |
| MDTK | ≤ 0.25 |
| KCAR | ≤ 0.25 |
| KTYN | ≤ 0.25 |
| VTCY | ≤ 0.25 |
| FGDA | ≤ 0.25 |
| GNAN | ≤ 0.25 |
| HYSR | ≤ 0.25 |
| FPEA | ≤ 0.25 |
| HRKG | ≤ 0.25 |
| YNPK | ≤ 0.25 |
| INGC | ≤ 0.25 |
| YDGQ | ≤ 0.25 |
| TEIA | 5.22 |
| SWFK | ≤ 0.25 |
| NLLG | ≤ 0.25 |
| PPCK | ≤ 0.25 |
